Assay results as given in the supplement of paper PMC6135742.
Where a name gives a salt, the structure may show the parent alone. ± gives the standard deviation of the averaged measurements. The full ranking holds about 2,600 compounds; the median of “MBP+ mature oligodendrocyte number relative to DMSO vehicle control” is about -0.34, and the highest 2% start at about 13. Some of the results follow.

test system: jimpy (Plp1 jimpy) mouse iPSC-derived oligodendrocyte progenitor cells; experiment: MBP+ mature oligodendrocyte number relative to DMSO vehicle control (SDs above negative control mean); higher = more surviving jimpy oligodendrocytes (rescue); details: 10 µM; 3 days
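Further: 10 µM single dose with 3-day oligodendrocyte differentiation.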

SMILES	MBP+ mature oligodendrocyte number
Nc1ncnc2c1c(-c1cnc3[nH]ccc3c1)nn2C1CCCC1	< -6.01
COc1cc(OC)cc(-c2cc3cnc(N)nc3nc2NC(=O)NC(C)(C)C)c1	-2.43
COc1ccc2cc1Oc1ccc(cc1)C[C@H]1c3cc(c(OC)cc3CCN1C)Oc1c(OC)c(OC)cc3c1[C@H](C2)N(C)CC3 [Tetrandrine]	< -4.81
CC(=O)OCC(=O)[C@@]12N=C(C)O[C@@H]1C[C@H]1[C@@H]3CCC4=CC(=O)C=C[C@]4(C)[C@H]3[C@@H](O)C[C@@]12C [Deflazacort]	5.29
N=C(N)NCCC[C@H](N)C(=O)O [L-Arginine]	-1.06
Cc1nc2n(c(=O)c1CCN1CCC(c3noc4cc(F)ccc34)CC1)CCCC2 [Risperidone]	-0.287
CNCCC(Oc1ccc(C(F)(F)F)cc1)c1ccccc1 (centres undefined) [Fluoxetine HCl]	< -6.7
CNCCC(Oc1ccc(C(F)(F)F)cc1)c1ccccc1 (centres undefined) [Fluoxetine hydrochloride]	< -4.47
C[C@@H](CN1CC(=O)NC(=O)C1)N1CC(=O)NC(=O)C1 [Dexrazoxane HCl (ICRF-187, ADR-529)]	-3.56
CCC(=O)O[C@]1(C(=O)CCl)[C@@H](C)C[C@H]2[C@@H]3C[C@H](F)C4=CC(=O)C=C[C@]4(C)[C@@]3(F)[C@@H](O)C[C@@]21C [Halobetasol Propionate]	21.4
CC(=O)N[C@H]1[C@H]([C@H](O)[C@H](O)CO)OC(C(=O)O)=C[C@@H]1NC(=N)N [Zanamivir]	0.985 ± 1.6
CCN1CC(CCN2CCOCC2)C(c2ccccc2)(c2ccccc2)C1=O (centres undefined) [Doxapram HCl]	5.14
CN(C)Cc1cccc(N/C(=C2\C(=O)Nc3cc(C(N)=O)ccc32)c2ccccc2)c1	-5.06
CCCCNC(=O)NS(=O)(=O)c1ccc(C)cc1 [Tolbutamide]	0.39 ± 0.24
C[C@@H]1O[C@@H](O[C@H]2[C@H](Oc3cc(O)c(C(=O)CCc4ccc(O)cc4)c(O)c3)O[C@H](CO)[C@@H](O)[C@@H]2O)[C@H](O)[C@H](O)[C@H]1O [Naringin Dihydrochalcone]	0.451
CCOC(=O)OC(C)OC1=C(C(=O)Nc2ccccn2)N(C)S(=O)(=O)c2ccccc21 (centres undefined) [Ampiroxicam]	-1.09
O=C(Nc1c(Cl)cncc1Cl)c1ccc(OC(F)F)c(OCC2CC2)c1 [Roflumilast]	0.395
CCCS(=O)(=O)Nc1ccc(F)c(C(=O)c2c[nH]c3ncc(-c4ccc(Cl)cc4)cc23)c1F [Vemurafenib (PLX4032, RG7204)]	8.05
CCCCCCCCCCC/C=C\C(C)(C)/C=C\CCCC(=O)O [7,7-Dimethyl-(5Z,8Z)-eicosadienoic acid]	-0.962
O=S(=O)(O)CCS [Mesna]	-1.1
CN(C)C1CCN(C(=O)c2ccc(NC(=O)Nc3ccc(-c4nc(N5CCOCC5)nc(N5CCOCC5)n4)cc3)cc2)CC1	< -6.01
C[C@H](c1ccc(F)cc1CCCC(=O)O)N(c1cc(F)ccc1F)S(=O)(=O)c1ccc(Cl)cc1	-0.961
CC(=O)OCC[N+](C)(C)C [Acetylcholine Chloride]	1.51
CC1(C)CCC2=C(O1)c1ccccc1C(=O)C2=O [Beta-Lapachone]	-6.18
CC1(C)CCC2=C(O1)c1ccccc1C(=O)C2=O [beta-Lapachone]	< -3.97

SMILES	MBP+ mature oligodendrocyte number
OCCN1C[C@H](O)[C@@H](O)[C@H](O)[C@H]1CO [Miglitol]	-0.332
S=C(NCc1ccc2c(c1)OCO2)N1CCN(c2ncnc3c2oc2ccccc23)CC1 [Amuvatinib (MP-470)]	< -6.7
CC(=O)Oc1cc2c(s1)CCN(C(C(=O)C1CC1)c1ccccc1F)C2 (centres undefined) [Prasugrel]	2.81
Cn1cnc([N+](=O)[O-])c1Sc1ncnc2[nH]cnc12 [Azathioprine]	-1.9 ± 1.3
CC(C)C(=O)Nc1ccc([N+](=O)[O-])c(C(F)(F)F)c1 [Flutamide]	2.04 ± 0.024
O=C(O)CCCC[C@@H]1SC[C@@H]2NC(=O)N[C@@H]21 [Biotin (Vitamin B7)]	2.17
CCOC(=O)Nc1ccc(NCc2ccc(F)cc2)nc1N [Flupirtine maleate]	4.11 ± 3.1
CC1COc2c(N3CCN(C)CC3)c(F)cc3c(=O)c(C(=O)O)cn1c23 (centres undefined) [Ofloxacin]	0.539
O=C(O)/C=C/c1cnc[nH]1 [4-Imidazoleacrylic acid]	0.896
C[C@H](CCC(=O)O)[C@H]1CC[C@H]2[C@@H]3CC[C@@H]4C[C@H](O)CC[C@]4(C)[C@H]3CC[C@]12C [Lithocholic acid]	0.422
CC(=O)SCC(Cc1ccccc1)C(=O)NCC(=O)OCc1ccccc1 (centres undefined) [Racecadotril]	0.787
COC(=O)C1=C(C)NC(C)=C(C(=O)OC(C)C)C1c1cccc2nonc12 (centres undefined) [Isradipine]	6.28
Cn1c(Nc2ccc(C(F)(F)F)cc2)nc2cc(Oc3ccnc(-c4ncc(C(F)(F)F)[nH]4)c3)ccc21	-4.47
CCOC(=O)[C@H](CCc1ccccc1)N[C@@H](C)C(=O)N1Cc2cc(OC)c(OC)cc2C[C@H]1C(=O)O [Moexipril HCl]	-1.55
C/C=C1\[C@H]2C=C(C)C[C@]1(N)c1ccc(=O)[nH]c1C2 [(-)-Huperzine A (HupA)]	0.619
CN1CCN(C2CCN(C(=O)Nc3cc(Oc4ccc(NC(=O)C5(C(=O)Nc6ccc(F)cc6)CC5)c(F)c4)ccn3)CC2)CC1 [Golvatinib (E7050)]	< -6.01
C[N+](C)(C)CCO.[Cl-] [Choline Chloride]	2.94
Nc1ccc2c3c(cccc13)C(=O)NC2=O [4-Amino-1,8-naphthalimide]	-0.511
Clc1ccc(Nc2nnc(Cc3ccncc3)c3ccccc23)cc1 [Vatalanib (PTK787) 2HCl]	-5.48
Cn1cc(-c2ccc3nnc(Sc4ccc5ncccc5c4)n3n2)cn1	-0.676
O=C1NC(=O)/C(=C/c2cccc(C(F)(F)F)c2)S1	1.05
Cc1cc(O)c2c(c1)C(=O)c1cc(O)cc(O)c1C2=O [Emodin]	1.76 ± 0.45
CN(C/C=C/C#CC(C)(C)C)Cc1cccc2ccccc12 [Terbinafine]	1.87
CN(C/C=C/C#CC(C)(C)C)Cc1cccc2ccccc12 [Terbinafine HCl]	4.54
